Reference: PubChem BioAssay AID1346428 (National Center for Advancing Translational Sciences (NCATS), 2018)
The whole screen tested about 48,000 compounds, of which about 1,200 (2.5%) were called active. Another 2% or so got no clear call; they are omitted.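 Rule for the calls: active = activation of at least 60% and not above a set upper limit (about 1 call in 100 departs from these limits); inconclusive = activation of 40% to 60%, or above that upper limit; inactive = activation under 40%.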 This is one part of the list.

Biological target: Probable G-protein coupled receptor 32 (Homo sapiens) (UniProt O75388)
Assay: qHTS for Agonists of Human Resolvin D1 Receptor DRV1
Conditions: CHO-K1 GPR32 beta-arrestin PathHunter luminescence, 90 min; at 76.9 µM; hits give high values; zero percent set by DMSO-only wells
Outline: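 Using DMSO wells as EC0, agonist-induced signal was taken as chemiluminescence from beta-Gal reconstituted upon beta-arrestin recruitment to GPR32 in CHO-K1 cells after 90 min compound treatment.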

Sequence of UniProt O75388 (O75388 whole entry, looked up): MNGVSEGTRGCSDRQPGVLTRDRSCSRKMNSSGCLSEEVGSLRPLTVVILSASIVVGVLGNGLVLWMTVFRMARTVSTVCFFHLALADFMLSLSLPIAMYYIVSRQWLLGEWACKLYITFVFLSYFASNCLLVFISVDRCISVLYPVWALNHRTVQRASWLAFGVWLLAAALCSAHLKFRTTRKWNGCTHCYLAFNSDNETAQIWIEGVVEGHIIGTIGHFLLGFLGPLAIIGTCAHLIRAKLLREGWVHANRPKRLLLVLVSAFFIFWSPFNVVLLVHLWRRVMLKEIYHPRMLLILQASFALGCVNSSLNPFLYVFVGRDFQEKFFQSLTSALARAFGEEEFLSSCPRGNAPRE

| Structure (SMILES) | activation |
| --- | --- |
| Cc1ccc(-c2nc(CS(=O)(=O)CC(=O)N3CCN(c4ccccc4)CC3)c(C)o2)cc1 | inactive: 16.9% |
| CCOc1ccc(NC(=O)CN(c2ccc(C)cc2)S(=O)(=O)c2cccs2)cc1 | inactive: -9.92% |
| CCCOc1ccc(CN2C(=O)C(=O)c3cccc(C)c32)cc1 | inactive: -59.4% |
| COc1ccc(-c2nc3ccccc3s2)cc1NC(=O)c1cccc(F)c1 | inactive: -9.64% |
| Cc1ccc(-n2nc(C)c3c(C)c(CCC(=O)NCc4ccc(Cl)cc4)c(C)nc32)cc1 | inactive: -18.7% |
| CCc1cccc(C)c1Nc1c(-c2ccc(N(C)C)cc2)nc2cnccn12 | active: 92.5% |
| COc1cccc(CNC(=O)c2ccc3nc(CCc4ccccc4)oc3c2)c1OC | inactive: 31.2% |
| CCOc1ccc(CNCCSc2nnnn2C)cc1 | inactive: -7.89% |
| CCc1ccc(C(=O)c2cn(CC(=O)Nc3cc(OC)cc(OC)c3)c3ccc(CC)cc3c2=O)cc1 | inactive: 7.97% |
| CC1CN(C(=O)N2CCC(C(=O)NCc3ccco3)CC2)c2ccccc2O1 (centres undefined) | inactive: 2.67% |
| O=C(Nc1nc2ccccc2n1CCOc1ccccc1Cl)c1ccccc1 | inactive: -8.25% |
| Cc1cccc(CN2C(=O)c3ccccc3Sc3ccc(C(=O)NCCCN4CCOCC4)cc32)c1 | inactive: -21.4% |
| CC1CCN(c2nc3ccccc3nc2C(F)(F)F)CC1 | inactive: -17.9% |
| CCOc1cccc(C2c3c(oc4ccc(F)cc4c3=O)C(=O)N2c2cc(C)ccn2)c1 (centres undefined) | inactive: -4.79% |
| Cc1ccc2ncc(C(=O)c3ccc(C)c(C)c3)c(S(=O)(=O)c3ccccc3)c2c1 | inactive: -35.9% |
| CCN(CC)S(=O)(=O)c1nnc(NC(=O)c2ccc(C)cc2)s1 | inactive: 31.8% |
| CC1OC1P(=O)(O)O (centres undefined) | inactive: -14% |
| COc1ccccc1C1C(C(=O)Nc2ccccc2)=C(C)Nc2nc(-c3ccccc3)nn21 (centres undefined) | inactive: 17.3% |
| COc1ccccc1N1CCN(Cc2nc(-c3cc(OC)c(OC)c(OC)c3)no2)CC1 | inactive: -4.78% |
| CC1CCCCN1CCCNC(=O)Cn1ncc2c3ccccc3n(Cc3ccccc3)c2c1=O (centres undefined) | inactive: -13.7% |
| CC(=O)N1CCc2cc(S(=O)(=O)NC(Cc3ccccc3)C(=O)Nc3cc(C)cc(C)c3)ccc21 (centres undefined) | inactive: -12.5% |

| Structure (SMILES) | activation |
| --- | --- |
| Cc1ccc(NC(=O)CSc2nc3n[nH]c(C)c3c(=N)n2-c2ccccc2C)cc1C | inactive: 18.5% |
| CCN(Cc1ccccc1)C(=O)c1cn(-c2cccc(OC)c2)c(=O)c2ccccc12 | inactive: -18.1% |
| COc1ccc(CCN2C(=O)CN(C3CCCCCC3)C(=O)C2c2ccc(Cl)cc2)cc1OC (centres undefined) | inactive: -33.3% |
| Cc1ccc(Cl)cc1N1CCN(C(=O)CCc2nnc3n(C)c(=O)c4ccccc4n23)CC1 | inactive: -3.06% |
| O=C(Cn1ncc2c3ccccc3n(Cc3ccccc3)c2c1=O)NCCCN1CCCCC1 | inactive: -4.07% |
| O=C(O)c1ccc2c(c1)N(Cc1ccc(F)cc1)C(=O)c1ccccc1S2=O (centres undefined) | inactive: 5.27% |
| Cc1cc(NC(=O)c2cc(-c3ccc(F)cc3)on2)nn1Cc1ccc(Cl)cc1 | inactive: 45% |
| COc1ccccc1CNS(=O)(=O)c1c(C)nc2sc(C)cn2c1=O | inactive: 0.543% |
| Cc1ccc(Cl)cc1NC(=O)c1cc(S(=O)(=O)N2CCOCC2)cn1C | inactive: -3.47% |
| CCCCN(C)C(=O)C1CCC(Cn2c(=O)[nH]c3ccsc3c2=O)CC1 (centres undefined) | inactive: 25.6% |
| O=C(Cn1c(=O)c2cccn2c2ccc(F)cc21)Nc1cccc(F)c1 | inactive: -16.5% |
| COC(=O)c1cc(NC(=O)Cn2ncc3c([nH]c4ccccc43)c2=O)cc(C(=O)OC)c1 | inactive: 4.39% |
| CC1CCN(S(=O)(=O)c2ccc3c(c2)N(CC(=O)NCCN(C)C)C(=O)CS3)CC1 | inactive: -4.89% |
| O=C(NCCc1ccccc1)c1ccc2c(c1)CCN2S(=O)(=O)c1ccc(Cl)cc1 | inactive: 0.407% |
| Cc1ccc2c(CC(=O)Nc3ccc(S(=O)(=O)N4CCCC(C)C4)cc3)coc2c1 (centres undefined) | inactive: -9.79% |
| OC(c1ccccc1)c1nc2ccccc2n1Cc1c(F)cccc1Cl (centres undefined) | inactive: 45.8% |
| CCOc1ccc(-c2cc3c(=O)n(CC(=O)NCc4ccccc4)ccn3n2)cc1 | inactive: 11.7% |
| Fc1ccc(-n2nc(-c3ccccc3)c3cnc4ccccc4c32)cc1Cl | inactive: -0.611% |
| Cc1oc2ncnc(N3CCOCC3)c2c1C(=O)Nc1ccc(Br)cc1F | inactive: 16.1% |
| COCCNC(=O)CSc1nc(-c2ccc(C)cc2)[nH]c1-c1ccc(OC)cc1 | inactive: -32.5% |
| O=C(CSc1nc(=O)n(Cc2ccccn2)c2c1CCC2)Nc1cccc(Cl)c1 | inactive: 23.5% |

| Structure (SMILES) | activation |
| --- | --- |
| CC(C)CCNC(=O)C1CCC(CNS(=O)(=O)c2cccc3nsnc23)CC1 (centres undefined) | inactive: -7.26% |
| CCc1ccc(NC(=O)CN2C(C(=O)OC)=C(c3ccccc3)c3ccccc3S2(=O)=O)cc1 | inactive: -16.4% |
| O=C(Nc1ccc(Cl)cc1F)c1cc(S(=O)(=O)NC2CCCCCC2)ccc1F | inactive: -11.7% |
| CCCc1nn2c(=O)cc(COC(=O)c3ccccc3NC(=O)c3ccc(OCC)cc3)nc2s1 | inactive: -10.1% |
| Cc1cc(N2CCN(c3ccc(F)cc3)CC2)n2cnnc2n1 | inactive: -5.01% |
| COc1ccc(NC(=O)Cn2ccn(-c3ccc(C)c(C)c3)c(=O)c2=O)cc1Cl | inactive: -8.77% |
| Cc1ccc(-c2c3c(=O)n(C)c(=O)n(C)c3c3c(C)nc4ccccc4n23)cc1 | inactive: -13.3% |
| Cc1ccccc1OCC(=O)Nc1ccccc1C(=O)OCc1cc(=O)n2nc(C3CC3)sc2n1 | inactive: 8.79% |
| Cc1cccc(NC(=O)c2oc3ccccc3c2NC(=O)Cc2coc3cc(C)cc(C)c23)c1 | inactive: 6.43% |
| Cc1cccc(-c2nc3cc(NC(=O)COc4ccccc4F)ccc3o2)c1 | inactive: 13.1% |
| Cc1ccc(C(=O)c2cn(Cc3ccccc3)c3ccccc3c2=O)cc1 | inactive: 15.2% |
| COc1ccc(Cl)cc1NC(=O)CSc1nc(=O)[nH]c2c1CCC2 | inactive: -15.8% |
| COC(=O)c1ccccc1NC(=O)Cn1c(=O)n(-c2ccc(C)cc2)c(=O)c2ccccc21 | inactive: -20.2% |
| COc1ccc(OCC(=O)Nc2cc(-c3nc4ccccc4o3)ccc2Cl)cc1 | inactive: 1.68% |
| COc1cc(Nc2nc3c(S(=O)(=O)c4cccc(Cl)c4)nnn3c3ccsc23)cc(OC)c1 | inactive: -1.41% |
| CCOc1ccc(NC(=O)Cn2nc(CC)n3c(cc4sccc43)c2=O)cc1 | inactive: -25.3% |
| Cc1ccc2c(c1)c1c(c(=O)n(-c3cccc(Cl)c3)c(=O)n1CC(N)=O)n2C | inactive: -4.06% |
| Cc1ccc(NC(=O)CSc2nc3nccnc3c(=O)n2CCc2c[nH]c3ccccc23)cc1C | inactive: -5.19% |
| O=C1Nc2ccccc2C1Cc1ccc(Br)cc1 (centres undefined) | inactive: -20.8% |
| COc1ccccc1OCCNCC(O)COc1cccc2[nH]c3ccccc3c12 (centres undefined) | inactive: 2.9% |
| Cc1ccc(NC(=O)CN2C(=O)c3ccccc3Sc3ccc(C(=O)N4CCOCC4)cc32)cc1C | inactive: -14.9% |

| Structure (SMILES) | activation |
| --- | --- |
| CC1CCc2noc(NC(=O)c3ccc([N+](=O)[O-])cc3)c2C1 (centres undefined) | inactive: -1.41% |
| CCC(=O)N1CCc2cc(S(=O)(=O)NCCC(=O)Nc3ccc(C)cc3C)ccc21 | inactive: 0.532% |
| Cc1ccccc1OCCSc1nc2ccc(NC(=O)c3ccco3)cc2s1 | inactive: 6.18% |
| CC(=O)c1cccc(NC(=O)c2cc3sc(Cl)cc3n2C)c1 | inactive: 22.3% |
| Oc1c(C(c2ccc(Cl)cc2Cl)N2CCN(Cc3ccccc3)CC2)sc2nc(-c3ccco3)nn12 (centres undefined) | inactive: -7.8% |
| CCCOC(=O)c1c(-c2ccccc2)nc(CC)c(C(=O)SCC)c1CCC | inactive: -21.5% |
| CCCn1c(=N)c(C(=O)NCc2ccco2)cc2c(=O)n3cc(C)ccc3nc21 | inactive: 19.1% |
| CCC(Sc1nc2ccncc2[nH]1)C(=O)Nc1cc(C)ccc1C (centres undefined) | inactive: -0.343% |
| Cc1ccc(CNC(=O)Cn2ccn(-c3ccc(F)c(F)c3)c(=O)c2=O)cc1 | inactive: -5.67% |
| Cc1ccc(C2N3CC4(C)CN2CC(c2ccccc2)(C3)C4=O)cc1 (centres undefined) | inactive: -0.337% |
| CCn1cc(/C=C(\NC(=O)c2ccccc2Cl)C(=O)NCCCn2ccnc2)c2ccccc21 | inactive: 21.8% |
| COCCNC(=O)CCCn1c(SCc2ccccc2C)nc2c(sc3ccccc32)c1=O | inactive: -27.9% |
| CC(C)c1nc(CN(C)C(=O)N[C@H](C(=O)N[C@@H](Cc2ccccc2)C[C@H](O)[C@H](Cc2ccccc2)NC(=O)OCc2cncs2)C(C)C)cs1 | inactive: -10.7% |
| Cc1ccc(CNC(=O)c2ccc(N3Cc4ccccc4Oc4ncccc43)s2)cc1 | inactive: -17.5% |
| CCOc1ccc(C(=O)Nc2ccc(C(=O)OCc3cc(=O)n4c(C)csc4n3)cc2)cc1 | inactive: -17.8% |
| CCOCCCNC(=O)C(c1ccc(Cl)cc1)N(Cc1ccc2c(c1)OCO2)C(=O)c1ccc(NC(C)=O)cc1 (centres undefined) | inactive: -7.07% |
| COc1ccc(NC(=O)C(=O)NCc2ccco2)c(OC)c1 | inactive: -2.44% |
| COc1ccc(N2CCN(c3oc(/C=C/c4ccccc4OC)nc3C#N)CC2)cc1 | inactive: -35% |
| CC(C)Oc1ccc(CNC(=O)c2cccc(NC(=O)c3nsc4ccccc34)c2)cc1 | inactive: -16.5% |
| COc1ccc(OC)c(CNC(=O)C2CCN(S(=O)(=O)c3ccc4[nH]c(=O)oc4c3)CC2)c1 | inactive: -5.58% |
| Cc1cc(C)cc(NC(=O)N2CCC(N3CCN(Cc4ccccc4)C(=O)C3=O)CC2)c1 | inactive: -18.8% |
